Reference: PubChem BioAssay AID1460 (National Center for Advancing Translational Sciences (NCATS), 2008)
“And” between values parts separate entries of the source, which are not always exact repeats. Identical values can stand only once. The whole screen tested about 270,000 compounds, of which about 5,800 (2.1%) were called active. This list was built around the results that the source calls inconclusive (neither active nor inactive); the mix of calls is not that of the screen. Calls come from the whole dose curve; as a rule, active = well fitted inhibition curve with a large enough effect; inconclusive = small, poorly fitted or top-dose-only effect; inactive = flat fitted curve, though single readings scatter. Where the call is inconclusive, the potency comes from a doubtful curve fit.
% is set by controls: 0 for no effect and ±100 for the full control effect; potency is the fitted concentration of half-maximal effect; tags give direction and shape of the fitted curve.
Note: nearly all actives have a fitted effect of over 55% in size.

What follows are compounds tested against Microtubule-associated protein tau (Homo sapiens) (UniProt P10636) (assay: qHTS for Inhibitors of Tau Fibril Formation, Thioflavin T Binding). Conditions: recombinant tau K18 P301L (four-repeat tau fragment), heparin-induced fibrillization, ThT fluorescence; series mostly up to 57.4 µM; activity, negative = inhibition: at the top concentration.
UniProt P10636, sequence (P10636 whole entry, looked up, the tested form may be a part): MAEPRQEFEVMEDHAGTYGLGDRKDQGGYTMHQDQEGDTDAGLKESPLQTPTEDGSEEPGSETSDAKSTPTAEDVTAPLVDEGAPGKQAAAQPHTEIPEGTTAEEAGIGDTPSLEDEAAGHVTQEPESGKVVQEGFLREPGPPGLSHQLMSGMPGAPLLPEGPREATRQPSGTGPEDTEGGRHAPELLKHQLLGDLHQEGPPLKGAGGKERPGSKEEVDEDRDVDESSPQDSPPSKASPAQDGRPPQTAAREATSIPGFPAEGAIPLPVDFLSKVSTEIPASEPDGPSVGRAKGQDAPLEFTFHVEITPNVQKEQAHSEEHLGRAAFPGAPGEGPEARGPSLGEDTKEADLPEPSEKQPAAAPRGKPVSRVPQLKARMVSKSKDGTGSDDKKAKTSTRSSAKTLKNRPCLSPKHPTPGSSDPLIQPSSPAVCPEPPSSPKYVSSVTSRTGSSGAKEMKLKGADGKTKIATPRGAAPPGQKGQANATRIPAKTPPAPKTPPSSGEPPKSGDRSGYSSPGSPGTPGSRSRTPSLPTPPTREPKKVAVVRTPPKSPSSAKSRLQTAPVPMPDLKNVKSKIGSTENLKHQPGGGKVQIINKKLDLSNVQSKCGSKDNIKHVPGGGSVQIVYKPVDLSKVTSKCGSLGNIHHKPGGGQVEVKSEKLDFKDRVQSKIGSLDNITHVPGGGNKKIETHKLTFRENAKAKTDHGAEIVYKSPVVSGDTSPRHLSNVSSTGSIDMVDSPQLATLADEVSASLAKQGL
Outline: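 Heparin-induced fibrillization of the P301L-mutant K18 repeat-domain fragment of human tau was followed by ThT binding in quantitative high-throughput format.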
COc1ccc(NC(=O)COC(=O)c2c3c(nc4ccccc24)CCCC3)cc1 was tested, and the Potency was inconclusive: 8.91 µM [inhibitor, partial curve]. In the case of COc1ccccc1NC(=O)C(=O)NCc1ccccc1Cl, the Potency is reported as inconclusive: 35.5 µM [activator, single point]. In the case of Cc1nc2cccc(C(=O)Oc3ccc([N+](=O)[O-])cc3)c2o1, the Potency is reported as inconclusive: 11.2 µM [inhibitor, partial curve]. With O=C(Nc1ccc(Nc2ccccc2)cc1)C(Cl)Cl the Potency was inconclusive: 6.31 µM [inhibitor, partial curve]. For CC(=O)/C=C/c1ccc2ccccc2n1, the Potency was inconclusive: 12.6 µM [inhibitor, partial curve]. For CCCNC(=O)NC(=O)COC(=O)CNS(=O)(=O)/C=C/c1ccccc1, the “activity, negative = inhibition” value was inactive: 4.61%. CCOc1ccc(NC(=O)Cn2c(=O)n(CCCS(=O)(=O)C3CCCCC3)c(=O)c3ccccc32)cc1 was tested, and the Potency was inconclusive: 35.5 µM [inhibitor, single point]. With CCc1ccccc1NC(=O)CCC(=O)OCC(=O)c1ccc(-c2ccccc2)cc1 the Potency was inconclusive: 44.7 µM [inhibitor, single point]. COc1ccc(CCNC(=O)CCCn2nc(C)c3sc4ccccc4c3c2=O)c(OC)c1 was tested, and the “activity, negative = inhibition” value was inactive: 7.8%. For COc1ccc2c(c1)c(/C=N/Nc1nc3ccccc3[nH]1)c(C)n2C, the Potency was active: 22.4 µM. In the case of CCOc1ccc(-c2cc(CCCC(=O)NCCc3cc(OC)c(OC)c(OC)c3)no2)cc1, the Potency is reported as inconclusive: 2.51 µM [inhibitor, full curve]. In the case of CCOC(=O)C1CCN(C(c2ccc(C)cc2)c2c(O)cc(C)n(CCOC)c2=O)CC1 (centres undefined), the Potency is reported as inconclusive: 10 µM [inhibitor, partial curve, poor fit]. For COc1ccc(OC)c(N=C2C(=O)Nc3ccccc32)c1, the Potency was inconclusive: 25.1 µM [inhibitor, single point]. With CCOc1ccc(/C=N/NC(=O)Cn2ccnc2C)cc1 the “activity, negative = inhibition” value was inactive: -0.727%. With CCN1/C(=C2/SC(=S)NC2=O)Sc2ccccc21 the Potency was inconclusive: 3.98 µM [inhibitor, partial curve]. For O=C(O)c1cccc(-n2cnc3cccnc32)c1, the “activity, negative = inhibition” value was inactive: -6.95%. With CCN(CC)S(=O)(=O)c1cccc(NC(=O)C2SC(=Nc3ccc(C)cc3C)C(C(=O)NCC3CCCO3)=C2N)c1 (centres undefined) the “activity, negative = inhibition” value was inactive: -14.4%. Cc1cc(C(=O)Cn2cnc3cc([N+](=O)[O-])ccc3c2=O)c(C)n1CC1CCCO1 (centres undefined) was tested, and the Potency was inconclusive: 25.1 µM [inhibitor, single point]. In the case of COc1cc2c(cc1OC)C1(Nc3c-2c(C)nn3-c2ccccc2)C(=O)Nc2ccccc21 (centres undefined), the Potency is reported as inconclusive: 15.8 µM [inhibitor, partial curve]. With Cc1cc(O)ccc1N/C=C/c1onc(C)c1[N+](=O)[O-] the Potency was inconclusive: 0.794 µM [inhibitor, full curve]. COc1ccc(-c2nn(-c3ccc(C)cc3)c3c2cnc2ccc(C)cc23)cc1OC was tested, and the Potency was inconclusive: 6.31 µM [inhibitor, partial curve]. In the case of Cc1ccc(S(=O)(=O)N[C@H]2COC(=O)CC=C[C@@H](C)[C@H]3C=C[C@H](O)[C@@H](COC(=O)CC=C[C@H]2C)O3)cc1, the activity, negative = inhibition is reported as inactive: -11.7% [at 11.5 µM] and inactive: -1.91% [at 11.5 µM]. In the case of CCOC(=O)c1c(NC(=O)CNCC(O)CO)sc(C)c1C (centres undefined), the Potency is reported as inconclusive: 1.58 µM [inhibitor, full curve, poor fit]. For O=C1Nc2ccccc2OC1CC(=O)N1CCN(c2cccc(C(F)(F)F)c2)CC1 (centres undefined), the Potency was inconclusive: 15.8 µM [inhibitor, partial curve]. In the case of C(=N\NC1=Nc2cccc3cccc1c23)/c1ccccc1, the Potency is reported as active: 2 µM. CC1=CC(C)(C)Nc2ccc(OC(=O)c3cccnc3)cc21 was tested, and the Potency was inconclusive: 15.8 µM [inhibitor, single point]. COc1ccc2c(c1)C=C(C(=O)OCc1cccnc1)CO2 was tested, and the “activity, negative = inhibition” value was inactive: -13.1%. Cc1cccc(N2CCN(c3ncnc4c3nc3n4CCCCC3)CC2C)c1 (centres undefined) was tested, and the Potency was inconclusive: 20 µM [inhibitor, single point]. O=C(Cc1ccc(Cl)cc1)NNC(=S)NC(=O)c1cccs1 was tested, and the “activity, negative = inhibition” value was inactive: -11%. With CCOc1ccc(-c2nc(CSCC(=O)NCc3ccc(C)cc3)c(C)o2)cc1 the Potency was inconclusive: 15.8 µM [inhibitor, partial curve]. For NC(=O)c1nsc(C(=O)N(c2ccc(Cl)cc2)C(C(=O)NCC2CCCO2)c2cccs2)c1N (centres undefined), the Potency was inconclusive: 14.1 µM [inhibitor, partial curve]. In the case of Cc1onc(-c2c(F)cccc2Cl)c1C(=O)Nc1cccc(S(=O)(=O)NCc2ccco2)c1, the Potency is reported as inconclusive: 17.8 µM [inhibitor, partial curve, poor fit]. CC(=O)Nc1ccc(C(=O)OCC(=O)c2ccc(C)c([N+](=O)[O-])c2)cc1 was tested, and the Potency was inconclusive: 3.98 µM [inhibitor, partial curve]. For COc1ccc(C(=O)Nc2ccc(N3CCOCC3)cc2)cc1S(=O)(=O)NC1CCCC1, the Potency was inconclusive: 15.8 µM [inhibitor, partial curve]. With Cc1ccc(/C=C/C(=O)Nc2ccc(Oc3ccccc3)cc2)o1 the Potency was inconclusive: 3.55 µM [inhibitor, partial curve, poor fit]. In the case of C/C(=N\Nc1nccnc1Cl)c1ccc(F)cc1, the “activity, negative = inhibition” value is reported as inactive: 2.3%. With Cn1c(=NC(=O)c2cccc([N+](=O)[O-])c2)sc2ccccc21 the Potency was inconclusive: 1.58 µM [inhibitor, full curve, poor fit]. For Fc1ccc(NC(=S)N/N=C/c2ccc(F)c(F)c2)cc1, the “activity, negative = inhibition” value was inactive: -0.435%. In the case of Cc1nc2ccccn2c1-c1csc(NCc2ccco2)n1, the Potency is reported as inconclusive: 31.6 µM [inhibitor, single point]. For CC1=NN(c2ccccc2)C(=O)/C1=C\c1c(C)[nH]n(-c2ccccc2)c1=O, the Potency was inconclusive: 3.16 µM [inhibitor, full curve]. For Cc1cc(=O)n(CC(=O)NC(C)c2ccccc2)c2c1c(C)nn2-c1cccc(F)c1 (centres undefined), the “activity, negative = inhibition” value was inactive: -3.1%. In the case of Cc1cc2nc(-c3ccccc3)cc(=O)n2[nH]1, the “activity, negative = inhibition” value is reported as inactive: -5.77%. With O=C(CCCN1C(=O)c2cccc3cccc(c23)C1=O)N1CCN(c2ccccc2O)CC1 the Potency was inconclusive: 17.8 µM [inhibitor, partial curve]. In the case of Cc1ccc(-n2nnnc2SCC(=O)NC2CCCc3ccccc32)c(C)c1 (centres undefined), the “activity, negative = inhibition” value is reported as inactive: -4.13%. In the case of COc1ccc(-c2cc(=Nc3ccc(C(=O)O)cc3)c3cc(C)ccc3o2)cc1, the Potency is reported as inconclusive: 3.98 µM [inhibitor, full curve]. O=C(CCc1ccccc1)N1CCN(c2ccccn2)CC1 was tested, and the “activity, negative = inhibition” value was inactive: 5.63%. CN(C)S(=O)(=O)c1ccc(NC(=O)CCNC(=O)c2ccc([N+](=O)[O-])cc2)cc1 was tested, and the Potency was inconclusive: 11.2 µM [inhibitor, partial curve]. With C=CCc1cc(/C=C2/NC(=S)NC2=O)cc(OC)c1O the Potency was inconclusive: 14.1 µM [inhibitor, partial curve]. In the case of CC(=O)Oc1ccc2oc(/C=C/N(C)C)c([N+](=O)[O-])c2c1, the Potency is reported as active: 28.2 µM. In the case of CC(=O)c1ccc(NC(=O)c2c(C)nn(-c3ccccc3)c2Cl)cc1, the Potency is reported as inconclusive: 31.6 µM [inhibitor, single point]. In the case of Cc1nc(C)c(-c2nnc(-c3ccc(C(C)(C)C)cc3)o2)cc1C(=O)NN, the Potency is reported as inconclusive: 22.4 µM [inhibitor, single point]. For Nc1nnc(N2CCCCC2)s1, the “activity, negative = inhibition” value was inactive: -10.3%. With C[C@H](NC(=O)c1nc[nH]c1C(=O)N[C@@H](CCCCNC(=O)OC(C)(C)C)C(=O)OC(C)(C)C)c1ccccc1 the “activity, negative = inhibition” value was inactive: -6.46%. For COc1ccc(OCCn2cncn2)cc1, the Potency was inconclusive: 0.891 µM [inhibitor, single point]. With COc1cc(OC)cc(-c2cc3nc(C)c(CCC(=O)Nc4ccccc4OC)c(C)n3n2)c1 the Potency was inconclusive: 22.4 µM [inhibitor, partial curve]. In the case of Cc1ccc(C(=O)CSc2nc3c([nH]2)c(=O)n(C)c(=O)n3C)cc1, the “activity, negative = inhibition” value is reported as inactive: -10.1%. With O=c1c(-c2cccc([N+](=O)[O-])c2)[n+]([O-])c2ccccc2n1O the “activity, negative = inhibition” value was inactive: -6.62%. Cc1nn2c(CN(C(=O)COc3ccccc3)c3ccccc3)nnc2c2ccccc12 was tested, and the “activity, negative = inhibition” value was inactive: -7.54%. CCc1ccccc1NC(=O)CSc1nnc(-c2ccccc2)c(-c2ccccc2)n1 was tested, and the “activity, negative = inhibition” value was inactive: -10.8%. In the case of COc1ccccc1CNC(=O)c1cc2c(-c3ccc(Cl)cc3)nn(C)c2s1, the “activity, negative = inhibition” value is reported as inactive: 0.677%. CCN(CC)c1ccc(/C=N/NC(=S)NCc2ccc(OC)cc2)cc1 was tested, and the Potency was inconclusive: 5.01 µM [inhibitor, partial curve]. In the case of COCCOC(=O)c1c(C)oc2ccc(OCc3cc(C(=O)OC)oc3C)cc12, the Potency is reported as inconclusive: 25.1 µM [inhibitor, partial curve]. With CCn1ccc2c(OCC(=O)Nc3ccc(C(C)=O)cc3)cccc2c1=O the “activity, negative = inhibition” value was inactive: -8.06%. With CO/N=C/C(C#N)c1ncc(C(F)(F)F)cc1Cl (centres undefined) the Potency was inconclusive: 25.1 µM [inhibitor, partial curve]. CCCC(=O)Nc1ccc(Cl)c(NC(=O)c2cccnc2)c1 was tested, and the “activity, negative = inhibition” value was inactive: -11.4%. For O=S(=O)(NCC(c1ccco1)N1CCN(c2ccccc2)CC1)c1ccccc1 (centres undefined), the Potency was inconclusive: 31.6 µM [inhibitor, single point]. In the case of Cc1cccn2c3c(c(=O)nc12)C(c1ccc(F)cc1)CC(=O)N3 (centres undefined), the “activity, negative = inhibition” value is reported as inactive: -7.45%. For N/C(=N\OC(=O)CSc1ccccc1)c1ccc([N+](=O)[O-])cc1, the Potency was inconclusive: 11.2 µM [inhibitor, partial curve]. Cc1nc(NC(=O)c2ccccc2)sc1-c1csc(Nc2ccc(Cl)cc2Cl)n1 was tested, and the Potency was inconclusive: 3.55 µM [inhibitor, full curve].
